Data taken from the supplement of paper PMC6089552.
In all, about 3,200 compounds went through this assay and about 300 (9.4%) showed activity. The list shows a part of the results, in another mix than the full data.

Test system: A673/TR/shEF
Experiment: cell viability (LOESS-normalised, relative to median of negative controls) (log2 ratio); higher = more viable cells (less compound effect), active = hit call of the paper (over 3 MAD below the median)
Details: treatment time: 72 h
How it was run: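 A673/TR/shEF Ewing sarcoma cells (1,500 per well, 384-well plates) were grown with or without doxycycline to induce EWS-FLI1 shRNA knockdown, starting 24 h before compounds. Library compounds at two or more concentrations, with DMSO controls, were added for three days. Cell viability was read by CellTiter-Glo luminescence on an Envision reader, then LOESS-corrected per plate, divided by the median of negative controls and log2-transformed. Hits were wells at least three median absolute deviations from the median of all screened wells.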

[1] = 0.25 µM, library screen: screen1, EWS-FLI1 expression: high (no doxycycline)
[2] = 0.25 µM, library screen: screen1, EWS-FLI1 expression: low (doxycycline-induced shRNA knockdown)
[3] = 2.5 µM, library screen: screen1, EWS-FLI1 expression: high (no doxycycline)
[4] = 2.5 µM, library screen: screen1, EWS-FLI1 expression: low (doxycycline-induced shRNA knockdown)
[5] = 0.25 µM, library screen: screen2, EWS-FLI1 expression: high (no doxycycline)
[6] = 0.25 µM, library screen: screen2, EWS-FLI1 expression: low (doxycycline-induced shRNA knockdown)
[7] = 2.5 µM, library screen: screen2, EWS-FLI1 expression: high (no doxycycline)
[8] = 2.5 µM, library screen: screen2, EWS-FLI1 expression: low (doxycycline-induced shRNA knockdown)

Measured: cell viability (log2)

O=C(O)CCNC(=O)c1ccccc1
inactive: [1] 0.12 | [2] -0.0698 | [3] 0.206 | [4] 0.0272

NC/C=C/C(=O)O
inactive: [5] 0.0937 | [6] 0.0677 | [7] 0.0994 | [8] 0.0371

CC(=O)O[C@H]1CC[C@@]2(C)[C@@H](CC[C@@H]3[C@@H]2CC[C@]2(C)[C@@H]4[C@H](C[C@@H]32)O[C@]2(CC[C@@H](C)CO2)[C@H]4C)C1
inactive: [1] 0.0876 | [2] 0.0708 | [3] 0.176 | [4] 0.151

CCN(CC)CCOC(=O)c1cc(Cl)c(N)cc1OC
inactive: [5] 0.171 | [6] -0.00228 | [7] 0.0663 | [8] 0.0639

CC(=O)N[C@@H](Cc1c[nH]c2ccccc12)C(=O)OCc1cc(C(F)(F)F)cc(C(F)(F)F)c1
inactive: [5] 0.0922 | [6] 0.0805 | [7] 0.152 | [8] 0.0877

NCCCNCCCCNCCCN
inactive: [5] 0.154 | [6] 0.0565 | [7] 0.0558 | [8] 0.0601

CCN(CC)CCNC(=O)c1cc(Cl)c(N)cc1OC
inactive: [1] 0.0661 | [2] -0.0016 | [5] 0.15 | [6] 0.17 | [3] 0.166 | [4] 0.15 | [7] 0.193 | [8] 0.127

CCOc1ccc2ccccc2c1C(=O)N[C@@H]1C(=O)N2[C@@H]1SC(C)(C)[C@@H]2C(=O)O
inactive: [1] 0.128 | [2] 0.0433 | [3] 0.166 | [4] -0.038

CN(C)C/C=C(/c1ccc(Br)cc1)c1cccnc1
inactive: [5] 0.0905 | [6] 0.0837 | [7] 0.14 | [8] 0.112

Cn1cnc2c1c(=O)[nH]c(=O)n2C
inactive: [1] 0.0857 | [2] 0.111 | [5] 0.271 | [6] 0.0982 | [3] 0.156 | [4] 0.18 | [7] 0.152 | [8] 0.0905

N#C/C(=C\c1c[nH]c2ccccc12)C(=O)c1ccc(O)c(O)c1
inactive: [5] 0.155 | [6] 0.0215 | [7] 0.202 | [8] 0.127

CCN1CCN(CC(O)COc2cc(C)c(Cl)c(C)c2)CC1 (stereo not given)
inactive: [1] 0.082 | [2] 0.0372 | [3] 0.096 | [4] 0.29

CC1OC(OC2C(O)COC(OC3C(C)OC(OC4C(OC(=O)C56CCC(C)(C)CC5C5=CCC7C8(C)CCC(OC9OC(CO)C(O)C(O)C9O)C(C)(C)C8CCC7(C)C5(C)CC6O)OCC(O)C4O)C(O)C3O)C2O)C(O)C(O)C1O (stereo not given)
inactive: [1] 0.0486 | [2] 0.0258 | [3] 0.0372 | [4] 0.223

CC1=NN(c2ccccc2)C(=O)C1
inactive: [1] 0.122 | [2] 0.0544 | [3] 0.116 | [4] 0.125

NC(N)=NCCC[C@H](N)C(=O)O
inactive: [5] 0.054 | [6] 0.0718 | [7] 0.081 | [8] 0.0583

COc1ccc2c(c1)OC1CC1(c1ccccc1OC)C2=O (stereo not given)
inactive: [1] 0.0685 | [2] 0.0535 | [3] 0.0294 | [4] 0.0412

C[S+]([O-])c1ccc(-c2nc(-c3ccc(F)cc3)c(-c3ccncc3)[nH]2)cc1 (stereo not given)
active: [3] -0.235 | 25 µM, library screen: screen1, EWS-FLI1 expression: high (no doxycycline) -0.108
0.29: 0.025 µM, library screen: screen1, EWS-FLI1 expression: high (no doxycycline)
inactive: 0.025 µM, library screen: screen1, EWS-FLI1 expression: low (doxycycline-induced shRNA knockdown) 0.136 | [1] 0.263 | [2] 0.121 | [4] 0.238 | 25 µM, library screen: screen1, EWS-FLI1 expression: low (doxycycline-induced shRNA knockdown) 0.274

CC1=CC(=O)C(C(C)C)=CC1=O
inactive: [1] -0.0353 | [2] 0.0114 | [3] 0.0596 | [4] 0.0471

OCc1cccnc1
inactive: [1] 0.0897 | [2] 0.0782 | [3] 0.155 | [4] -0.00172

O=C(O)Cc1c[nH]c2ccc(O)cc12
inactive: [5] 0.0568 | [6] 0.0713 | [7] 0.0127 | [8] 0.139

CC(C)[N+](C)(CCOC(=O)C1c2ccccc2Oc2ccccc21)C(C)C
inactive: [1] 0.116 | [2] 0.12 | [5] 0.123 | [6] 0.000468 | [3] 0.226 | [4] 0.173 | [7] 0.233 | [8] 0.0645

CN[C@@H]1[C@H](O[C@H]2[C@H](O[C@H]3[C@H](O)[C@@H](O)[C@H](N=C(N)N)[C@@H](O)[C@@H]3N=C(N)N)O[C@@H](C)[C@]2(O)CO)O[C@@H](CO)[C@H](O)[C@H]1O
inactive: [1] 0.0822 | [2] 0.116 | [3] 0.138 | [4] 0.136

Cc1onc(-c2ccccc2Cl)c1C(=O)N[C@@H]1C(=O)N2[C@@H]1SC(C)(C)[C@@H]2C(=O)O
inactive: 0.103 µM, library screen: screen3, EWS-FLI1 expression: high (no doxycycline) 0.109 | 0.103 µM, library screen: screen3, EWS-FLI1 expression: low (doxycycline-induced shRNA knockdown) 0.0531 | [1] 0.106 | [2] 0.0499 | 0.308 µM, library screen: screen3, EWS-FLI1 expression: high (no doxycycline) 0.113 | 0.308 µM, library screen: screen3, EWS-FLI1 expression: low (doxycycline-induced shRNA knockdown) 0.0899 | 0.926 µM, library screen: screen3, EWS-FLI1 expression: high (no doxycycline) 0.0631 | 0.926 µM, library screen: screen3, EWS-FLI1 expression: low (doxycycline-induced shRNA knockdown) 0.0718 | [3] 0.219 | [4] 0.201 | 2.8 µM, library screen: screen3, EWS-FLI1 expression: high (no doxycycline) -0.00707 | 2.8 µM, library screen: screen3, EWS-FLI1 expression: low (doxycycline-induced shRNA knockdown) 0.089 | 8.3 µM, library screen: screen3, EWS-FLI1 expression: high (no doxycycline) 0.0622 | 8.3 µM, library screen: screen3, EWS-FLI1 expression: low (doxycycline-induced shRNA knockdown) 0.105 | 25 µM, library screen: screen3, EWS-FLI1 expression: high (no doxycycline) 0.0853 | 25 µM, library screen: screen3, EWS-FLI1 expression: low (doxycycline-induced shRNA knockdown) 0.0801
